# Experimental data from article PMC9911399, “Two distinct binding modes provide the RNA-binding protein RbFox with extraordinary sequence specificity”.
# Changes are numbered by the printed parent chain; changes in the protein carry UniProt numbers. The list shows a part of the results.
# T1: RBFOX1 RRM (Homo sapiens, UniProt Q9NWB1 109-208)
# T1 sequence: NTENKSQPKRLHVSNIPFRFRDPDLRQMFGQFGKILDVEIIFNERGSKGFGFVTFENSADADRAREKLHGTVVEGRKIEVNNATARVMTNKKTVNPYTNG
# B1: UGGGAAA (DNA:RNA)
# RNA: GGGAGACCGGAAUUCAGAUUGUCCUGGGAAAUUAAAUCCCGUCGUAGCCACCA
# DNA 1: CAATCTGAATTCCGGTCTCCC
# DNA 2: TGGTGGCTACGACGGGATT
# B2: UACGCUA (DNA:RNA)
# RNA: B1 RNA with G26A, G27C, A29C, A30U
# DNA 1: CAATCTGAATTCCGGTCTCCC
# DNA 2: TGGTGGCTACGACGGGATT
# B3: CGACAAA (DNA:RNA)
# RNA: B1 RNA with U25C, G27A, G28C
# DNA 1: CAATCTGAATTCCGGTCTCCC
# DNA 2: TGGTGGCTACGACGGGATT
# B4: GUCCUUA (DNA:RNA)
# RNA: B1 RNA with U25G, G26U, G27C, G28C, A29U, A30U
# DNA 1: CAATCTGAATTCCGGTCTCCC
# DNA 2: TGGTGGCTACGACGGGATT
# B5: UCGAGUC (DNA:RNA)
# RNA: B1 RNA with G26C, G28A, A29G, A30U, A31C
# DNA 1: CAATCTGAATTCCGGTCTCCC
# DNA 2: TGGTGGCTACGACGGGATT
# B6: UGAACCC (DNA:RNA)
# RNA: B1 RNA with G27A, G28A, A29C, A30C, A31C
# DNA 1: CAATCTGAATTCCGGTCTCCC
# DNA 2: TGGTGGCTACGACGGGATT
# B7: ACAAGCU (DNA:RNA)
# RNA: GGGAGACCGGAAUUCAGAUUGUCCACAAGCUUUAAAUCCCGUCGUAGCCACCA
# DNA 1: CAATCTGAATTCCGGTCTCCC
# DNA 2: TGGTGGCTACGACGGGATT
# B8: UCCGCAG (DNA:RNA)
# RNA: B1 RNA with G26C, G27C, A29C, A31G
# DNA 1: CAATCTGAATTCCGGTCTCCC
# DNA 2: TGGTGGCTACGACGGGATT
# B9: UCUGCCC (DNA:RNA)
# RNA: B7 RNA with A25U, A27U, A28G, G29C, U31C
# DNA 1: CAATCTGAATTCCGGTCTCCC
# DNA 2: TGGTGGCTACGACGGGATT
# B10: GCAGAUU (DNA:RNA)
# RNA: B7 RNA with A25G, A28G, G29A, C30U
# DNA 1: CAATCTGAATTCCGGTCTCCC
# DNA 2: TGGTGGCTACGACGGGATT
# B11: CAAGAAG (DNA:RNA)
# RNA: B1 RNA with U25C, G26A, G27A, A31G
# DNA 1: CAATCTGAATTCCGGTCTCCC
# DNA 2: TGGTGGCTACGACGGGATT
# B12: CCGUCGG (DNA:RNA)
# RNA: B7 RNA with A25C, A27G, A28U, G29C, C30G, U31G
# DNA 1: CAATCTGAATTCCGGTCTCCC
# DNA 2: TGGTGGCTACGACGGGATT
# B13: GCAAUGG (DNA:RNA)
# RNA: B7 RNA with A25G, G29U, C30G, U31G
# DNA 1: CAATCTGAATTCCGGTCTCCC
# DNA 2: TGGTGGCTACGACGGGATT
# B14: GAUCACC (DNA:RNA)
# RNA: B7 RNA with A25G, C26A, A27U, A28C, G29A, U31C
# DNA 1: CAATCTGAATTCCGGTCTCCC
# DNA 2: TGGTGGCTACGACGGGATT
# B15: GACAUCA (DNA:RNA)
# RNA: B7 RNA with A25G, C26A, A27C, G29U, U31A
# DNA 1: CAATCTGAATTCCGGTCTCCC
# DNA 2: TGGTGGCTACGACGGGATT
# B16: CGUAAGG (DNA:RNA)
# RNA: B1 RNA with U25C, G27U, G28A, A30G, A31G
# DNA 1: CAATCTGAATTCCGGTCTCCC
# DNA 2: TGGTGGCTACGACGGGATT
# B17: AAGAAGA (DNA:RNA)
# RNA: B1 RNA with U25A, G26A, G28A, A30G
# DNA 1: CAATCTGAATTCCGGTCTCCC
# DNA 2: TGGTGGCTACGACGGGATT
# B18: CAGAUGG (DNA:RNA)
# RNA: B7 RNA with A25C, C26A, A27G, G29U, C30G, U31G
# DNA 1: CAATCTGAATTCCGGTCTCCC
# DNA 2: TGGTGGCTACGACGGGATT
# B19: CAUCCAG (DNA:RNA)
# RNA: B1 RNA with U25C, G26A, G27U, G28C, A29C, A31G
# DNA 1: CAATCTGAATTCCGGTCTCCC
# DNA 2: TGGTGGCTACGACGGGATT
# B20: UGAAAUU (DNA:RNA)
# RNA: B7 RNA with A25U, C26G, G29A, C30U
# DNA 1: CAATCTGAATTCCGGTCTCCC
# DNA 2: TGGTGGCTACGACGGGATT
# B21: ACGGUUC (DNA:RNA)
# RNA: B7 RNA with A27G, A28G, G29U, C30U, U31C
# DNA 1: CAATCTGAATTCCGGTCTCCC
# DNA 2: TGGTGGCTACGACGGGATT
# B22: ACGGCAA (DNA:RNA)
# RNA: B1 RNA with U25A, G26C, A29C
# DNA 1: CAATCTGAATTCCGGTCTCCC
# DNA 2: TGGTGGCTACGACGGGATT
# B23: AAGAACC (DNA:RNA)
# RNA: B7 RNA with C26A, A27G, G29A, U31C
# DNA 1: CAATCTGAATTCCGGTCTCCC
# DNA 2: TGGTGGCTACGACGGGATT
# B24: CGCCAUU (DNA:RNA)
# RNA: B1 RNA with U25C, G27C, G28C, A30U, A31U
# DNA 1: CAATCTGAATTCCGGTCTCCC
# DNA 2: TGGTGGCTACGACGGGATT
# B25: ACCCCGA (DNA:RNA)
# RNA: B7 RNA with A27C, A28C, G29C, C30G, U31A
# DNA 1: CAATCTGAATTCCGGTCTCCC
# DNA 2: TGGTGGCTACGACGGGATT
# B26: CAAGAUG (DNA:RNA)
# RNA: B1 RNA with U25C, G26A, G27A, A30U, A31G
# DNA 1: CAATCTGAATTCCGGTCTCCC
# DNA 2: TGGTGGCTACGACGGGATT
# B27: UAAUAAU (DNA:RNA)
# RNA: B1 RNA with G26A, G27A, G28U, A31U
# DNA 1: CAATCTGAATTCCGGTCTCCC
# DNA 2: TGGTGGCTACGACGGGATT
# B28: GUCAUCU (DNA:RNA)
# RNA: B7 RNA with A25G, C26U, A27C, G29U
# DNA 1: CAATCTGAATTCCGGTCTCCC
# DNA 2: TGGTGGCTACGACGGGATT
# B29: GUUACCA (DNA:RNA)
# RNA: B7 RNA with A25G, C26U, A27U, G29C, U31A
# DNA 1: CAATCTGAATTCCGGTCTCCC
# DNA 2: TGGTGGCTACGACGGGATT
# B30: CAUGCUA (DNA:RNA)
# RNA: B1 RNA with U25C, G26A, G27U, A29C, A30U
# DNA 1: CAATCTGAATTCCGGTCTCCC
# DNA 2: TGGTGGCTACGACGGGATT
# B31: GGAAUAA (DNA:RNA)
# RNA: B1 RNA with U25G, G27A, G28A, A29U
# DNA 1: CAATCTGAATTCCGGTCTCCC
# DNA 2: TGGTGGCTACGACGGGATT
# Biological target: T1, RBFOX1 RRM
# Experiment: EMSA; HiTS-Eq, 1 nM pool, 10 min; buffer printed only for the single-RNA assays: 10 mM Tris pH 7.5, 150 mM NaCl, 3.4 mM EDTA, 0.001% NP-40, 30 C
# Conditions: tags: His6 N-terminal (pET28a); label: 5' 32P
# Method in brief: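 Relative association constants, normalised to the cognate motif, were derived by comparing read counts of each RNA species with those of the control reaction. The RNA sequenced was the free fraction, separated by 8% native PAGE after a 10 min equilibration in 50 µL of 1 nM 5′-radiolabelled RNA (7 randomized nucleotides) with increasing concentrations of purified wild-type or mutant RbFox RRM.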
row,Binder,binding signal
1,B1,0.0273 KA relative to UGCAUGU
2,B2,0.00478 KA relative to UGCAUGU
3,B3,0.00428 KA relative to UGCAUGU
4,B4,0.00586 KA relative to UGCAUGU
5,B5,0.0142 KA relative to UGCAUGU
6,B6,0.00441 KA relative to UGCAUGU
7,B7,0.0027 KA relative to UGCAUGU
8,B8,0.0128 KA relative to UGCAUGU
9,B9,0.0116 KA relative to UGCAUGU
10,B10,0.00839 KA relative to UGCAUGU
11,B11,0.00743 KA relative to UGCAUGU
12,B12,0.0118 KA relative to UGCAUGU
13,B13,0.0146 KA relative to UGCAUGU
14,B14,0.00724 KA relative to UGCAUGU
15,B15,0.00555 KA relative to UGCAUGU
16,B16,0.00625 KA relative to UGCAUGU

row,Binder,binding signal
1,B17,0.00545 KA relative to UGCAUGU
2,B18,0.01 KA relative to UGCAUGU
3,B19,0.00084 KA relative to UGCAUGU
4,B20,0.00973 KA relative to UGCAUGU
5,B21,0.0146 KA relative to UGCAUGU
6,B22,0.00895 KA relative to UGCAUGU
7,B23,0.00442 KA relative to UGCAUGU
8,B24,0.00624 KA relative to UGCAUGU
9,B25,0.00179 KA relative to UGCAUGU
10,B26,0.00651 KA relative to UGCAUGU
11,B27,0.00384 KA relative to UGCAUGU
12,B28,0.00775 KA relative to UGCAUGU
13,B29,0.00649 KA relative to UGCAUGU
14,B30,0.00212 KA relative to UGCAUGU
15,B31,0.00248 KA relative to UGCAUGU
